{"source": "PubChem BioAssay AID1721", "about": "(National Center for Advancing Translational Sciences (NCATS), 2009)", "note": "Out of some 290,000 compounds screened, about 1,100 (0.38%) were called active. Inconclusive results, whose numbers are uncertain, are shown with a selection of clear calls. Calls follow the shape of the dose curve; as a rule, active = well fitted inhibition curve with a large enough effect; inconclusive = small, poorly fitted or top-dose-only effect, or another doubt; inactive = no such curve, though single readings can be large or run the other way. Where the call is inconclusive, the potency comes from a doubtful curve fit. % is scaled to controls: 0 for no effect and ±100 for the full control effect; potency is read from the fitted curve at half-maximal effect; tags tell the direction and shape of the fitted curve.", "data": [{"molecular_target": "Pyruvate kinase (Leishmania mexicana) (UniProt Q27686)", "sequence (Q27686 whole entry, looked up)": "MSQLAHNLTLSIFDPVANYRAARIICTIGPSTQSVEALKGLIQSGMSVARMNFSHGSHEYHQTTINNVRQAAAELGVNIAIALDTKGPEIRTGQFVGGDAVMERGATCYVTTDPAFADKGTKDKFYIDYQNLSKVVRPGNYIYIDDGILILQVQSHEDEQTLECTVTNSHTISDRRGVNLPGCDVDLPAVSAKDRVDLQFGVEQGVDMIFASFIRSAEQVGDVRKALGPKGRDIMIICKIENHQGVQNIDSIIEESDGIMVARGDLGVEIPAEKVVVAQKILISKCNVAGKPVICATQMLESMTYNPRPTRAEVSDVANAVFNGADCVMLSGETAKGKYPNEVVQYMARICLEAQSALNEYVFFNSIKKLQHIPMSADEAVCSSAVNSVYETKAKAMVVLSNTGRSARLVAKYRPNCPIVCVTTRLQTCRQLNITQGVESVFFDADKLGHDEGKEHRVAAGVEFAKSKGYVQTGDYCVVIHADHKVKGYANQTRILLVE", "assay": "qHTS Assay for Inhibitors of Leishmania Mexicana Pyruvate Kinase (LmPK)", "conditions": "purified LmPK, Kinase-Glo ATP luminescence, 1 h; activity change, negative = inhibition: at 57.5 µM (top of the series) unless noted", "procedure,_shortened": "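Purified LmPK (0.1 nM) with 0.5 mM PEP and 0.1 mM ADP in imidazole buffer pH 7.2 with MgCl2/KCl, 1 h at room temperature. ATP formed was read by luciferase luminescence and normalized to no-enzyme and uninhibited controls.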", "values": [{"smiles": "CSc1ccc(/C=C/C(=O)c2c(O)cc(C)oc2=O)cc1", "Potency": "inconclusive: 28.2 µM [falling, single point]"}, {"smiles": "S=c1[nH]nc(Cc2cccs2)n1-c1cccc2ccccc12", "Potency": "active: 7.94 µM"}, {"smiles": "COCC(C)Nc1ncnc2c1cnn2-c1ccc(Cl)cc1", "note": "(centres undefined)", "activity change, negative = inhibition": "inactive: 6.11%"}, {"smiles": "COC(=O)CCNC(=O)c1nn(Cc2ccccc2)c(=O)c2ccccc12", "activity change, negative = inhibition": "inactive: 6.38%"}, {"smiles": "Cc1cccn2c1nc(=S)n2C(=O)c1ccco1", "Potency": "active: 10 µM"}, {"smiles": "COc1ccc(C2=Nc3cc(C)ccc3OC2)cc1", "Potency": "active: 11.2 µM"}, {"smiles": "Cc1ccc(-n2c(-c3ccco3)n[nH]c2=S)cc1", "Potency": "inconclusive: 14.1 µM [falling, partial curve]"}, {"smiles": "O=C(NCc1ccccc1)c1cc2ccccc2o1", "activity change, negative = inhibition": "inactive: -19.3%"}, {"smiles": "O=C(NC1=NCCS1)C1COc2ccccc2O1", "note": "(centres undefined)", "Potency": "active: 15.8 µM"}, {"smiles": "O=C(Nc1ccc(N2CCCC2)cc1)c1cccc(F)c1", "Potency": "inconclusive: 8.91 µM [falling, partial curve]"}, {"smiles": "Cc1cc2cc(CNC(=O)Nc3cccc(Cl)c3)ccc2n1C", "activity change, negative = inhibition": "inactive: -6.99%"}, {"smiles": "N#Cc1ccsc1NC(=O)CCc1ccccc1", "Potency": "inconclusive: 15.8 µM [falling, partial curve]"}, {"smiles": "O=c1c2ccccc2cnn1Cc1n[nH]c(=S)n1-c1ccc(Cl)cc1", "Potency": "inconclusive: 17.8 µM [falling, partial curve]"}, {"smiles": "C/C(=N\\NC(=O)c1nn(C)cc1Br)c1cccc(NC(=O)C(C)(C)C)c1", "activity change, negative = inhibition": "inactive: -0.454%"}, {"smiles": "CC(=O)N(C)c1ccc(NC(=O)Nc2ccccc2C)cc1", "Potency": "inconclusive: 14.1 µM [falling, partial curve]"}, {"smiles": "COc1cc2cc(C(c3nnnn3C(C)(C)C)N3CCc4ccccc4C3)c(=O)[nH]c2cc1OC", "note": "(centres undefined)", "activity change, negative = inhibition": "inactive: 0.774%"}, {"smiles": "N#C/C(=N\\Nc1ccc([N+](=O)[O-])cc1)C(N)=S", "Potency": "inconclusive: 14.1 µM [falling, partial curve]"}, {"smiles": "O=C(NN=C(Cc1ccccc1)Cc1ccccc1)c1ccccc1F", "activity change, negative = inhibition": "inactive: 3.22%"}, {"smiles": "Cn1cccc1C(=O)NC(=O)COC(=O)C12CC3CC(CC(O)(C3)C1)C2", "Potency": "inconclusive: 7.08 µM [falling, full curve]"}, {"smiles": "O=C(CCc1ccc(O)c(O)c1)N/N=C/c1cc2c(cc1[N+](=O)[O-])OCO2", "Potency": "inconclusive: 0.447 µM [falling, full curve]"}, {"smiles": "CCSc1nnc(NC(=O)c2csc3c2CCC(C)C3)s1", "note": "(centres undefined)", "activity change, negative = inhibition": "inactive: -1.55%"}, {"smiles": "CO[C@H]1C=CO[C@@]2(C)Oc3c(C)c(O)c4c(O)c(c(C=NN5CCN(C)CC5)c(O)c4c3C2=O)NC(=O)C(C)=CC=C[C@H](C)[C@H](O)[C@@H](C)[C@@H](O)[C@@H](C)[C@H](OC(C)=O)[C@@H]1C", "Potency": "inconclusive: 39.8 µM [falling, single point]"}, {"smiles": "CCOC(=O)c1cn2nc(N3CCCCC3)ccc2n1", "Potency": "inconclusive: 22.4 µM [falling, partial curve]"}, {"smiles": "COc1ccccc1C(=O)Nc1ccc2c(c1)OCCO2", "Potency": "inconclusive: 22.4 µM [falling, single point]"}, {"smiles": "Cc1cc(C(=O)COC(=O)c2n[nH]c3ccccc23)c(C)n1C", "Potency": "inconclusive: 22.4 µM [falling, single point]"}, {"smiles": "COc1cc(O)oc1C=Nc1ccc(C(=O)O)cc1", "Potency": "active: 25.1 µM"}, {"smiles": "COc1cc(OC)c(/C=N/n2c(C3CCCCC3)n[nH]c2=S)c(OC)c1", "Potency": "inconclusive: 8.91 µM [falling, partial curve]"}, {"smiles": "O=C1CSC(=S)N1/N=C/c1cc(Br)ccc1O", "Potency": "inconclusive: 39.8 µM [falling, single point]"}, {"smiles": "Cc1ccc(NC(=S)Nc2ccc3nc(-c4ccccn4)c(-c4ccccn4)nc3c2)cc1C", "activity change, negative = inhibition": "inactive: 1.54%"}, {"smiles": "Cc1ccc(NC(=O)c2ccccc2F)nc1", "Potency": "inconclusive: 22.4 µM [falling, partial curve]"}, {"smiles": "COc1ccc(C(=O)c2cc3cccc(OC)c3o2)cc1", "Potency": "inconclusive: 15.8 µM [falling, partial curve]"}, {"smiles": "COc1cc(OC)cc(C(=O)Nc2ccc3c(c2)OCCO3)c1", "Potency": "inconclusive: 15.8 µM [falling, partial curve]"}, {"smiles": "CCn1cc(C(=O)O)c(=O)c2cc(F)c(N3CCN(C(=S)NC(=O)c4ccccc4)CC3)cc21", "Potency": "inconclusive: 22.4 µM [falling, single point]"}, {"smiles": "c1csc(-c2ccc(N3CCOCC3)nn2)c1", "Potency": "inconclusive: 14.1 µM [falling, partial curve]"}, {"smiles": "CCCCNC(=O)c1sc(=S)n2c1[nH]c(=O)c1ccccc12", "Potency": "inconclusive: 39.8 µM [falling, single point]"}, {"smiles": "O=C(OCc1csc(-c2ccccc2)n1)c1ccccc1O", "Potency": "inconclusive: 22.4 µM [falling, single point]"}, {"smiles": "Oc1ccc2ccccc2c1CN1CCN(C/C=C/c2ccccc2)CC1", "activity change, negative = inhibition": "inactive: -1.89%"}, {"smiles": "COc1ccccc1NC(=O)c1cc2ccccc2nc1C", "activity change, negative = inhibition": "inactive: 2.92%"}, {"smiles": "CCN(CC)c1ccc(/C=C2/SC(=O)N(C(C)C)C2=O)o1", "activity change, negative = inhibition": "inactive: -6.39%"}, {"smiles": "CC(C)Cc1cc(CN2CCC(CO)(Cc3cccc(C(F)(F)F)c3)CC2)[nH]n1", "Potency": "inconclusive: 11.2 µM [falling, partial curve]"}, {"smiles": "Cc1ccc(NC(=O)CSc2nnc(Cc3cccn3C)n2-c2ccc(F)cc2)cc1", "activity change, negative = inhibition": "inactive: 0.778%"}, {"smiles": "Cc1cc(NC(=O)CSc2ccc3nnc(-c4cccs4)n3n2)no1", "activity change, negative = inhibition": "inactive: 3.4%"}, {"smiles": "COc1ccc(C(=O)C[n+]2ccc(N)c(C)c2C)cc1", "Potency": "active: 7.94 µM"}, {"smiles": "CC(=C/c1ccccc1)/C=N/NC(=O)c1ccccn1", "Potency": "inconclusive: 15.8 µM [falling, partial curve]"}, {"smiles": "CC(=O)Oc1cccc(/C=C2\\Sc3ccccc3C2=O)c1", "Potency": "inconclusive: 22.4 µM [falling, partial curve]"}, {"smiles": "C/C(=N/N=C/c1ccc(N(C)C)cc1)c1ccccc1", "Potency": "inconclusive: 14.1 µM [falling, partial curve]"}, {"smiles": "Cc1ccc(C(=O)Nc2ccc3c(c2)OCCO3)o1", "Potency": "inconclusive: 31.6 µM [falling, partial curve]"}, {"smiles": "CN(C)c1nc(OCCNC(=O)COc2ccc(Cl)cc2Cl)nc(N(C)C)n1", "activity change, negative = inhibition": "inactive: -4.67%"}, {"smiles": "N/C(=N\\OC(=O)c1ccc(Br)cc1)c1ccccc1", "Potency": "inconclusive: 2.82 µM [falling, full curve]"}]}]}
